In the supplement of paper PMC12217912:
Some of the results follow. The full chains were built here from the parent and the listed change. Values near 0.05 are background.

B1: TEV protease; numbered along this chain (parent)
chain: MGESLFKGPRDYNPISSSICHLTNESDGHTTSLYGIGFGPFIITNKHLFRRNNGTLVVQSLHGVFKVKDTTTLQQHLVDGRDMIIIRMPKDFPPFPQKLKFREPQREERICLVTTNFQTKSMSSMVSDTSCTFPSGDGIFWKHWIQTKDGQCGSPLVSTRDGFIVGIHSASNFTNTNNYFTSVPKNFMELLTNQEAQQWVSGWRLNADSVLWGGHKVFMVKPEEPFQPVKEATQL

Variants of: B1
Test: raw area under fraction-flipped curve 0-4 h after induction (AUC4h, not background-subtracted), DNA-recorder readout of cleavage of the substrate (dimensionless); higher = more cleavage of the substrate by the protease variant
Details: temperature: 34 °C; time window: 0-4 h after rhamnose induction
Description: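 In vivo DNA recorder in E. coli TOP10(DE3) ΔrhaA at 34 °C. Each TEVp single-site mutant (parent TEVp 0) is paired with a single-site variant of the 7-mer TEVs (canonical ENLYFQ|S). The substrate sits between flexible linkers in a Bxb1-sfGFP-TEVs-SsrA fusion, so cleavage stabilises Bxb1 and speeds flipping of a recombination array, read by NGS. The value is the raw area under the fraction-flipped curve over 0-4 h after rhamnose induction (AUC4h), with ≥20 reads per time point. It is not background-subtracted; inactive controls average about 0.047.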
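Note: Bxb1 expression induced with 0.2% (w/v) L-rhamnose at OD600 near 0.5, cultures sampled hourly, flipped fraction per protease–substrate barcode pair counted by paired-end Illumina sequencing.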

Variant | area with substrate ENLAFQS | area with substrate ENLCFQS | area with substrate ENLDFQS | area with substrate ENLEFQS | area with substrate ENLFFQS | area with substrate ENLGFQS | area with substrate ENLHFQS | area with substrate ENLIFQS | area with substrate ENLKFQS | area with substrate ENLLFQS | area with substrate ENLMFQS | area with substrate ENLNFQS | area with substrate ENLPFQS | area with substrate ENLQFQS | area with substrate ENLRFQS | area with substrate ENLSFQS | area with substrate ENLWFQS | area with substrate ENLVFQS | area with substrate ENLTFQS
G150L | 0.0659 | 0.0295 | 0.0562 | 0.0772 | 0.0658 | 0.075 | 0.0567 | 0.0551 | 0.0627 | 0.043 | 0.0729 | 0.0706 | 0.0571 | 0.0596 | 0.0486 | 0.0522 | 0.0408 | – | –
G150F | 0.0652 | – | 0.065 | 0.0572 | 0.0722 | – | 0.0587 | 0.0621 | 0.0473 | 0.0326 | 0.0681 | 0.0616 | 0.0638 | 0.0568 | 0.0592 | 0.0558 | 0.0486 | 0.0589 | –
S121A | 0.0602 | – | 0.069 | – | 0.0741 | – | – | – | 0.0808 | – | 0.0778 | 0.0669 | 0.0584 | 0.0663 | 0.0609 | 0.0733 | 0.0706 | – | –
S121Y | 0.076 | – | – | – | 0.0807 | 0.0682 | – | – | – | – | – | – | 0.0641 | 0.0424 | – | 0.0653 | 0.0839 | 0.117 | –
S121E | 0.0713 | 0.0887 | – | 0.0734 | 0.108 | 0.0548 | 0.0399 | 0.0556 | – | 0.0815 | 0.0711 | 0.0695 | – | 0.0638 | – | 0.0571 | – | – | –
T115C | 0.0721 | 0.0685 | 0.0623 | 0.0609 | 0.0882 | – | 0.0701 | – | – | 0.0484 | 0.0907 | 0.0685 | 0.0662 | 0.04 | 0.0601 | 0.0597 | – | – | –
D128H | 0.0667 | 0.0785 | 0.0693 | 0.0698 | 0.108 | 0.0732 | 0.0753 | 0.0979 | 0.0873 | 0.077 | – | – | – | 0.028 | – | 0.0629 | – | – | –
E108N | 0.0586 | 0.0575 | 0.0518 | 0.0689 | 0.0772 | 0.0657 | 0.0532 | 0.0596 | 0.0513 | 0.0481 | – | 0.0499 | 0.0611 | 0.0327 | 0.104 | 0.0573 | – | 0.0597 | –
I86R | 0.0483 | – | 0.0455 | – | 0.0403 | – | 0.0465 | – | 0.046 | 0.0071 | – | – | – | – | – | 0.0455 | – | 0.0507 | –
I86F | 0.0672 | – | 0.0603 | – | 0.0815 | 0.0617 | 0.0594 | 0.0642 | 0.0636 | 0.0532 | – | – | 0.0645 | – | – | – | – | 0.0664 | –
R109C | 0.0727 | – | – | – | 0.0647 | – | 0.0748 | 0.0808 | 0.0758 | – | – | 0.0611 | 0.0568 | – | 0.0443 | – | 0.0659 | 0.0973 | –
R109P | 0.0668 | 0.0843 | 0.0521 | 0.0756 | 0.0858 | 0.0692 | 0.0674 | 0.0833 | 0.072 | 0.0743 | 0.0604 | 0.0668 | 0.0514 | 0.0486 | 0.0787 | 0.0695 | 0.0929 | – | 0.0735
P89W | 0.0913 | 0.0602 | 0.0433 | – | – | – | 0.0348 | 0.0721 | 0.0717 | – | 0.0674 | 0.0457 | 0.0285 | – | – | 0.0479 | – | 0.0799 | –
P89E | 0.0529 | – | 0.066 | 0.0589 | 0.0984 | – | – | 0.0987 | 0.0586 | 0.0587 | 0.0722 | 0.0605 | 0.0877 | – | 0.0477 | – | 0.0559 | 0.0931 | 0.0668
L99C | 0.0956 | 0.0881 | 0.0886 | 0.0928 | 0.0803 | – | 0.0812 | 0.0754 | 0.0646 | 0.0628 | – | – | 0.0769 | 0.0664 | – | 0.0696 | 0.0718 | 0.0805 | 0.0525
L99S | 0.0501 | 0.0679 | 0.0604 | 0.0685 | 0.0782 | 0.0477 | 0.052 | 0.0795 | 0.0722 | 0.0783 | 0.0487 | 0.0522 | 0.0543 | – | – | 0.0593 | – | – | –
G138Q | 0.0536 | 0.0536 | 0.0409 | – | 0.0863 | – | – | – | – | 0.105 | – | 0.0432 | 0.0632 | 0.0629 | – | – | – | – | –
V157N | 0.057 | 0.0542 | 0.0469 | 0.0537 | 0.0657 | – | 0.0523 | 0.0504 | 0.0615 | 0.047 | – | 0.0509 | 0.0359 | – | 0.0679 | 0.0506 | 0.0478 | – | 0.0629
L156K | 0.0528 | 0.0547 | 0.0566 | – | – | 0.0684 | 0.0602 | – | 0.0491 | – | 0.055 | 0.0562 | 0.0496 | – | 0.0571 | 0.0553 | – | – | 0.0599
D149S | 0.0586 | – | 0.0565 | – | 0.0808 | 0.0629 | 0.0698 | 0.0903 | 0.0655 | – | 0.0884 | 0.0647 | 0.0626 | – | 0.07 | – | – | – | –
D149Q | 0.0669 | – | 0.0702 | 0.0681 | 0.071 | – | – | 0.0767 | 0.0677 | – | – | 0.0772 | 0.0803 | – | 0.0684 | 0.0629 | 0.0404 | 0.072 | 0.0629
K100T | 0.0663 | 0.0774 | 0.0429 | – | 0.0976 | – | 0.0784 | 0.114 | 0.09 | – | – | 0.0375 | – | 0.0566 | – | 0.0533 | 0.0787 | – | –
P134E | 0.0672 | – | 0.0663 | – | 0.073 | – | 0.0669 | 0.0925 | 0.0696 | 0.0568 | – | 0.0718 | 0.065 | 0.0638 | 0.0526 | 0.0463 | – | 0.0731 | –
K148T | 0.0595 | – | 0.0711 | 0.068 | 0.0391 | – | 0.0659 | – | 0.0815 | – | 0.074 | 0.0946 | 0.0564 | 0.078 | 0.0466 | 0.0579 | – | 0.0589 | –
K148M | 0.06 | 0.0654 | 0.0649 | 0.0715 | 0.0779 | 0.0672 | 0.074 | – | 0.0779 | 0.0731 | 0.0871 | 0.0694 | 0.0303 | – | – | 0.0702 | 0.0803 | – | –
Q118G | 0.059 | 0.0662 | 0.0708 | 0.137 | 0.0759 | – | 0.0344 | 0.0927 | 0.0791 | – | – | 0.0388 | 0.0649 | 0.0727 | 0.0614 | 0.0647 | – | – | –
Q118A | 0.0802 | – | 0.0574 | – | 0.0855 | – | 0.0737 | 0.0825 | 0.0821 | – | – | 0.0645 | 0.0385 | 0.0235 | – | – | 0.0773 | 0.102 | –
